The supplement of paper PMC10986608
Several values for one entry are separate records, joined by “and”; a condition that tells them apart may be missing. Identical values can stand only once. Some of the results follow. Repeats are few or missing, and single values can be far off.

tested on: Candida albicans DPL-15; assay: growth (OD600) after compound treatment (apparently relative to screen median) (relative growth (fraction; screen median 1.02)); DPL-15 is a caspofungin-resistant clinical isolate; higher = more fungal growth (less antifungal activity); conditions: 25 µM; RPMI 1640; 48 h; 30 °C

SMILES	growth
COc1ccc(Cn2nc(C(C)(C)C)cc2N)cc1	1.18
CC(C)[C@@H](COS(=O)(=O)NCC(F)(F)F)N1C(=O)c2ccccc2C1=O	1.07
CC(C)CC1=NCCN(C)C2=C1C(c1ccccc1)N(Cc1ccccc1)C2=O (stereo not given)	0.962
CCc1cc(Nc2cc(O)cc(O)c2C(=O)N2Cc3cccnc3C2)n(Cc2ccc(OC)cc2)n1	0.967
Cn1c(-c2ccc(N3CCOCC3)cc2)c(O)c(=O)c2c(F)cccc21	1.02
C=CCC[C@@H](O)COc1cc2c(cc1C1(c3cc4c(cc3OC[C@H](O)CCC=C)OCO4)C(=O)Nc3cc(Br)ccc31)OCO2	1.01
CO[C@@H]1[C@H](O)CC[C@]2(O)CN(c3ccc(C)c(Br)c3)[C@@H](CC=C(C)C)[C@](C)(O)[C@@H]12	0.845
CCN(CC)CCCNC1=NC(c2ccc(Cl)cc2)C(C(=O)OC)=C(C)N1C (stereo not given)	1.16
COC(=O)C/C=C/[C@H](C)[C@@H](NC(=O)[C@H](CCC(=O)OC)NC(=O)OC(C)(C)C)c1cccnc1	1.09
COc1ccc(N2C(=O)c3nn(C)c(CC(C)C)c3C2c2ccc(F)cc2)cc1 (stereo not given)	0.958
COc1cc(N2C(=O)c3[nH]nc(CC(C)C)c3C2c2ccccc2Br)cc(OC)c1OC (stereo not given)	1
CO[C@@H]1[C@H](O)CC[C@]2(O)CN(c3c(C)noc3C)[C@@H](CC=C(C)C)[C@](C)(O)[C@@H]12	1.03
COC(=O)[C@@H]1[C@@H](C)N(Cc2ccccc2)C(=O)N[C@H]1c1ccccc1	0.991
COc1ccc(N2C(=O)c3[nH]nc(CC(C)C)c3C2c2ccccc2Br)cc1 (stereo not given)	1.02
COc1cc(OC)c2c(=O)c3c(C[C@@H]4[C@H](c5cc(OC)c(O)c6oc7cc(OC)cc(OC)c7c(=O)c56)C=C(C)CC4(C)C)cc(OC)c(O)c3oc2c1	0.846
COc1ccc(N2C(=O)c3[nH]nc(CC(C)C)c3C2c2ccc(F)cc2)cc1F (stereo not given)	0.884
COC(=O)c1[nH]c2ccc(OC)cc2c1[C@]12CCN(C(=O)C3CC3)[C@H]1Nc1ccccc12	0.844
COc1cccc(C#Cc2ccc3c(=O)c(Cc4cccnc4)coc3c2)c1	1.37
COC(=O)[C@H]1[C@@H](O)[C@@]2(O)c3c(F)cccc3N(C)[C@@]2(c2ccc(OC)cc2)[C@@H]1c1ccccc1	0.984
CC(=O)O[C@@H]1C=C[C@@H](C#Cc2ccc(C(C)(C)C)cc2)O[C@@H]1COC(=O)NCc1ccccc1	1.08
COC(=O)c1nnc(C(=O)N(C)CC#Cc2ccccc2Cl)c2c3ccccc3n(S(=O)(=O)c3ccc(C)cc3)c12	1.08
COC(=O)C1=C(C(=O)OC)[C@@H]2N(Cc3ccccc3)c3ccccc3[C@@]23C[C@@H](C(=O)OC)N(S(=O)(=O)c2ccc([N+](=O)[O-])cc2)C3=N1	0.933
COC(=O)c1c(-c2ccccc2Cl)c2c(c3c4ccccc4n(S(=O)(=O)c4ccc(C)cc4)c13)C(=O)N(C)C2	1.09
Cc1nn(-c2ccc(C(C)(C)C)cc2)c2c1C(c1ccc3c(c1)OCO3)NC2=O (stereo not given)	1.05
COC(=O)C1=C(C)N(C)C(NCC2CCCCC2)=NC1c1ccc(Cl)cc1 (stereo not given)	0.801

SMILES	growth
Cc1nn(C)cc1Nc1cc(O)cc(O)c1C(=O)N1CCC(F)(F)C1	1.1
COC(=O)c1[nH]c2ccc(OC)cc2c1[C@]12CCN(C(=O)c3ccccc3)[C@H]1Nc1ccccc12	0.955
Cc1c(O)ccc(C=O)c1C	0.961
CCO[C@@H]1CCN(C(=O)c2c(O)cc(O)cc2Nc2ccnn2C)C1	1.1
Cc1nnc(N2CCC(C(=O)Nc3cccc(F)c3)CC2)c2nn(-c3ccccc3)c(C)c12	1.45
COc1ccc([C@@]23Oc4cc(OC)cc(OC)c4[C@]2(O)[C@H](O)[C@H](C(=O)c2cc4ccccc4o2)[C@H]3c2ccccc2)cc1	0.759
Cc1ccc(-c2cc(N)n(C)n2)cc1	1.02
COC(=O)C1=C(C)N(C)C(NCc2cc(OC)c(OC)c(OC)c2)=NC1c1ccccc1C(F)(F)F (stereo not given)	1.02
Cc1cccc(-c2cc(N)n(C)n2)c1	1.06
COC(=O)C1=C(C)N(Cc2ccc(Br)cc2)C(=S)NC1c1ccccc1 (stereo not given)	0.936
C=CCN1C(=O)C2=C(C(C(C)C)=NCC(C)(C)N2)C1c1ccc(Br)cc1 (stereo not given)	1.11
O=S(=O)(Nc1nc2ccccc2s1)N1CCOCC1	1.28
C=Cc1cc(O[Si](C)(C)C(C)(C)C)ccc1[C@@H]1CCC2(OCCO2)[C@@]1(O)CC(=C)C	0.86
CC(C)c1ccc(Cn2nccc2Nc2cc(O)cc(O)c2C(=O)N2Cc3cccnc3C2)cc1	1.07
COC(=O)C1=C(C)N(Cc2ccc(F)cc2)C(=S)NC1c1ccccc1Br (stereo not given)	1.19
CCCCCOS(=O)(=O)N[C@H](C)c1ccccc1	1.1
CC(C)Cc1c2c(nn1-c1ccccc1)C(=O)NC2c1ccc(F)cc1 (stereo not given)	0.931
CC(C)=CCc1cc(OCC(N)=O)cc2oc3cccc(O)c3c(=O)c12	1.21
CN1CCN=C(c2ccccc2)C2=C1C(=O)N(Cc1ccccc1)C2c1ccccc1 (stereo not given)	1.05
COC(=O)c1cc2c(c3c4cc(C)ccc4n(S(=O)(=O)c4ccc(OC)cc4)c13)C(=O)N(Cc1ccc(N(C)C)cc1)C2	1.06
Nc1c(-c2ccc(F)cc2)cnc2c(-c3ccc(F)nc3)cnn12	1.39
CCN1C(=O)N(S(=O)(=O)c2ccc(C)cc2)[C@@H]2C[C@H](C(=O)N3CCCC3)[C@H](C)[C@H](c3ccccc3)C[C@@H]21	1.01
C=CCN1C(=O)C2=C(C(CC(C)C)=NCCN2)C1c1ccc(C)cc1 (stereo not given)	0.977
CCc1ccccc1-n1nc(CC(C)C)c2c1C(=O)NC2c1ccc2c(c1)OCO2 (stereo not given)	1.12
COC(=O)C1=C(C)[C@]2(C)C[C@@H]3[C@@]4(C)CC[C@H](O)C(C)(C)[C@@H]4CC[C@@]3(C)OC2=C(C)C1=O	1.04

SMILES	growth
COc1ccc(N2C(=O)C3=C(C(CC(C)C)=NCC(C)(C)N3)C2c2ccc3c(c2)OCO3)cc1 (stereo not given)	1.03
CC[C@@H](O)COc1cc2c(cc1C1(c3cc4c(cc3OC[C@H](O)CC)OCO4)C(=O)Nc3ccc(C)cc31)OCO2	0.982
O=C(O)[C@H]1[C@H](C(=O)O)[C@@H](c2ccccc2)[C@@H]1c1ccccc1	1.4
O=C1C(Nc2ccccc2)=CC(c2ccc3c(c2)OCO3)N1c1ccc(F)cc1 (stereo not given)	1.01
CC1=NCC(C)(C)NC2=C1C(c1ccc(F)cc1)NC2=O (stereo not given)	0.95
C=CCN1C(=O)C2=C(C(C(C)C)=NCCN2C)C1c1ccc(F)cc1 (stereo not given)	1.06
Cc1nn(C)c(C)c1Nc1cc(O)cc(O)c1C(=O)N1CC[C@H](F)C1	1.08
COC(=O)CCCCCN(C(=O)OC(C)(C)C)S(=O)(=O)NC(C)(C)C	1.12
CC(C)Cc1n[nH]c2c1C(c1cccc(C(F)(F)F)c1)N(c1ccc3c(c1)OCO3)C2=O (stereo not given)	0.88
O=C1CCCC(C(C(=O)OCc2ccccc2)C(=O)OCc2ccccc2)C1 (stereo not given)	0.936 and 0.945
COC(=O)Cc1nnn2c1[C@H](C)[C@H](c1cccc(OC)c1OC)OCC2	1.05
CC1=NCCNC2=C1C(c1ccccc1)N(c1ccccc1)C2=O (stereo not given)	0.912
C#CCC(C)(C)CNC(=O)CC1(CNC(=O)c2cccc(CS(=O)(=O)c3ccc(C)cc3)c2)CCCCC1	1.08
CCCCCOS(=O)(=O)Nc1ccc(C#N)cc1	1.03
CO[C@@H]1[C@H](O)CC[C@]2(O)CN([C@@H](C)c3ccccc3)[C@](C)([C@H](O)CC=C(C)C)[C@@H]12	1.12
CC(=O)C1=C(C)N(Cc2ccc(F)cc2)C(=S)NC1c1cccc(F)c1 (stereo not given)	0.945
COc1ccc(C[C@@H](CO)[C@@H](CO)Cc2ccc(OC)cc2)cc1	1.2
COc1cccc2c(=O)c3cccc(C(=O)NC(C)(C)C)c3[nH]c12	1.09
C=CCN1C(=O)C2=C(C(c3ccccc3)=NCCN2)C1c1ccc(F)cc1 (stereo not given)	1.02
COc1ccc(N2C(=O)C3=C(C(C(C)C)=NCCN3C)C2c2ccc3c(c2)OCO3)cc1 (stereo not given)	1.06
COC(=O)c1ccc(CN2C(=O)[C@@]3(CC(C)=C[C@@H](COc4ccccc4)O3)c3ccccc32)cc1	1.08
CCC[C@@H](O)COc1cc2c(cc1C1(c3cc4c(cc3OC[C@H](O)CCC)OCO4)C(=O)Nc3c(F)cccc31)OCO2	1.1
O=C(NO)[C@H](Cc1ccccc1)n1nnc(-c2ccccc2)c1C#CC1CC1	0.641
CO[C@@]12O[C@]1([C@]13O[C@@]1(OC)C(=O)c1ccccc1C3=O)C(=O)c1ccccc1C2=O	1.14
O=[N+]([O-])c1ccc(CCN2Cc3ccccc3C2)cc1	0.959
